These are yes or no findings as the source states them, for the method shown. In cells and extracts the contact can be indirect. Some entries that bind do so weakly or less than the wild type. For some assays here: Sequences can lack the tags named with a protein.
Experiments:
[1] = molecular target: Snail1 (endogenous) (human (endogenous in HCC1806)) (UniProt O95863); test: co-IP; endogenous co-IP from lysate of purified nucleoli of HCC1806 cells; high salt RIPA buffer (50 mM Tris pH 7.5, 500 mM NaCl, 1% Nonidet P-40, 0.5% deoxycholate); primary antibody or normal IgG overnight at 4 °C, protein A/G beads
HA-Snail1^K157R (human) = HA-Snail1^K157R (human) (UniProt O95863); test: co-IP; HCC1806 cells transfected with HA-Snail1 WT or K157R for 48 h, MG132 for 6 h; immunoprecipitation-western blot; complexes 'in the nucleolus' (Fig. 4f)
HA-Snail1 (human) [2] = molecular target: HA-Snail1 (human) (UniProt O95863); test: as above
[3] = molecular target: HA-Snail1^K146R/K206R (human) (UniProt O95863); test: co-IP; immunoprecipitation of Snail1 WT or 2KR with USP36 (Supplementary Fig. S2b); cells and beads not shown
HA-Snail1 (human) [4] = molecular target: HA-Snail1 (human) (UniProt O95863); test: as above
HA-Snail1 (human) [5] = molecular target: HA-Snail1 (human) (UniProt O95863); test: co-IP; immunoprecipitation of USP36 (WT or C131A) with Snail1, with or without the E1 inhibitor TAK-243 to block ubiquitination (Supplementary Fig. S2c); cells and beads not shown
[6] = molecular target: HA-Snail1^C-term(152–264) (human) (UniProt O95863); test: co-IP; HEK-293 cells co-transfected with tagged plasmids, MG132 10 μM for 6 h; anti-HA or anti-Flag beads overnight; wash 20 mM Tris-HCl, 250 mM NaCl, 0.2 mM EGTA, 0.1% Nonidet P-40 (Fig. 4a, b, d)

Protein sequences, listed by entry. Tags and fused reporters are not part of them. Lines headed by an entry give the natural chain unless they say otherwise; changes in a name come on top. Residues count along the entry.
UniProt O95863: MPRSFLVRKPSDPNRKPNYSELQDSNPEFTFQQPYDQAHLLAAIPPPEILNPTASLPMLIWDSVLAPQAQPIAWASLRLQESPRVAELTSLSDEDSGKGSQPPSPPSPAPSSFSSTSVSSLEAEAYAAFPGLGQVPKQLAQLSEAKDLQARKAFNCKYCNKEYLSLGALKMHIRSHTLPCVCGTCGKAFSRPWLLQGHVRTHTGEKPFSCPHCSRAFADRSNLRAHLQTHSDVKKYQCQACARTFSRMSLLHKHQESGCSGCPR
HA-Snail1^C-term(152–264): residues 152-264 of O95863

B1: USP36 (endogenous) (enzyme, UniProt Q9P275 1-1123)
chain: MPIVDKLKEALKPGRKDSADDGELGKLLASSAKKVLLQKIEFEPASKSFSYQLEALKSKYVLLNPKTEGASRHKSGDDPPARRQGSEHTYESCGDGVPAPQKVLFPTERLSLRWERVFRVGAGLHNLGNTCFLNATIQCLTYTPPLANYLLSKEHARSCHQGSFCMLCVMQNHIVQAFANSGNAIKPVSFIRDLKKIARHFRFGNQEDAHEFLRYTIDAMQKACLNGCAKLDRQTQATTLVHQIFGGYLRSRVKCSVCKSVSDTYDPYLDVALEIRQAANIVRALELFVKADVLSGENAYMCAKCKKKVPASKRFTIHRTSNVLTLSLKRFANFSGGKITKDVGYPEFLNIRPYMSQNNGDPVMYGLYAVLVHSGYSCHAGHYYCYVKASNGQWYQMNDSLVHSSNVKVVLNQQAYVLFYLRIPGSKKSPEGLISRTGSSSLPGRPSVIPDHSKKNIGNGIISSPLTGKRQDSGTMKKPHTTEEIGVPISRNGSTLGLKSQNGCIPPKLPSGSPSPKLSQTPTHMPTILDDPGKKVKKPAPPQHFSPRTAQGLPGTSNSNSSRSGSQRQGSWDSRDVVLSTSPKLLATATANGHGLKGNDESAGLDRRGSSSSSPEHSASSDSTKAPQTPRSGAAHLCDSQETNCSTAGHSKTPPSGADSKTVKLKSPVLSNTTTEPASTMSPPPAKKLALSAKKASTLWRATGNDLRPPPPSPSSDLTHPMKTSHPVVASTWPVHRARAVSPAPQSSSRLQPPFSPHPTLLSSTPKPPGTSEPRSCSSISTALPQVNEDLVSLPHQLPEASEPPQSPSEKRKKTFVGEPQRLGSETRLPQHIREATAAPHGKRKRKKKKRPEDTAASALQEGQTQRQPGSPMYRREGQAQLPAVRRQEDGTQPQVNGQQVGCVTDGHHASSRKRRRKGAEGLGEEGGLHQDPLRHSCSPMGDGDPEAMEESPRKKKKKKRKQETQRAVEEDGHLKCPRSAKPQDAVVPESSSCAPSANGWCPGDRMGLSQAPPVSWNGERESDVVQELLKYSSDKAYGRKVLTWDGKMSAVSQDAIEDSRQARTETVVDDWDEEFDRGKEKKIKKFKREKRRNFNAFQKLQTRRNFWSVTHPAKAASLSYRR
Question: With B1 as the binder, how does the binding [1] read?
Answer: Its binding is “binds”.

Question: What about the binding (HA-Snail1^K157R (human)) of the same binder?
Answer: The binding was “no binding”.

Question: What about the binding (HA-Snail1 (human) [2]) of the same binder?
Answer: Its binding is “binds”.

B2: Flag-USP36 (enzyme, UniProt Q9P275 1-1123)
chain: MPIVDKLKEALKPGRKDSADDGELGKLLASSAKKVLLQKIEFEPASKSFSYQLEALKSKYVLLNPKTEGASRHKSGDDPPARRQGSEHTYESCGDGVPAPQKVLFPTERLSLRWERVFRVGAGLHNLGNTCFLNATIQCLTYTPPLANYLLSKEHARSCHQGSFCMLCVMQNHIVQAFANSGNAIKPVSFIRDLKKIARHFRFGNQEDAHEFLRYTIDAMQKACLNGCAKLDRQTQATTLVHQIFGGYLRSRVKCSVCKSVSDTYDPYLDVALEIRQAANIVRALELFVKADVLSGENAYMCAKCKKKVPASKRFTIHRTSNVLTLSLKRFANFSGGKITKDVGYPEFLNIRPYMSQNNGDPVMYGLYAVLVHSGYSCHAGHYYCYVKASNGQWYQMNDSLVHSSNVKVVLNQQAYVLFYLRIPGSKKSPEGLISRTGSSSLPGRPSVIPDHSKKNIGNGIISSPLTGKRQDSGTMKKPHTTEEIGVPISRNGSTLGLKSQNGCIPPKLPSGSPSPKLSQTPTHMPTILDDPGKKVKKPAPPQHFSPRTAQGLPGTSNSNSSRSGSQRQGSWDSRDVVLSTSPKLLATATANGHGLKGNDESAGLDRRGSSSSSPEHSASSDSTKAPQTPRSGAAHLCDSQETNCSTAGHSKTPPSGADSKTVKLKSPVLSNTTTEPASTMSPPPAKKLALSAKKASTLWRATGNDLRPPPPSPSSDLTHPMKTSHPVVASTWPVHRARAVSPAPQSSSRLQPPFSPHPTLLSSTPKPPGTSEPRSCSSISTALPQVNEDLVSLPHQLPEASEPPQSPSEKRKKTFVGEPQRLGSETRLPQHIREATAAPHGKRKRKKKKRPEDTAASALQEGQTQRQPGSPMYRREGQAQLPAVRRQEDGTQPQVNGQQVGCVTDGHHASSRKRRRKGAEGLGEEGGLHQDPLRHSCSPMGDGDPEAMEESPRKKKKKKRKQETQRAVEEDGHLKCPRSAKPQDAVVPESSSCAPSANGWCPGDRMGLSQAPPVSWNGERESDVVQELLKYSSDKAYGRKVLTWDGKMSAVSQDAIEDSRQARTETVVDDWDEEFDRGKEKKIKKFKREKRRNFNAFQKLQTRRNFWSVTHPAKAASLSYRR
Question: B2 was tested. Which binding [3] did it give?
Answer: The binding was “binds”.

Question: And the binding (HA-Snail1 (human) [4])?
Answer: The binding was “binds”.

Question: And the binding (HA-Snail1 (human) [5])?
Answer: The binding was “binds”.

B3: Flag-USP36^C131A (enzyme, UniProt Q9P275 1-1123)
chain: MPIVDKLKEALKPGRKDSADDGELGKLLASSAKKVLLQKIEFEPASKSFSYQLEALKSKYVLLNPKTEGASRHKSGDDPPARRQGSEHTYESCGDGVPAPQKVLFPTERLSLRWERVFRVGAGLHNLGNTAFLNATIQCLTYTPPLANYLLSKEHARSCHQGSFCMLCVMQNHIVQAFANSGNAIKPVSFIRDLKKIARHFRFGNQEDAHEFLRYTIDAMQKACLNGCAKLDRQTQATTLVHQIFGGYLRSRVKCSVCKSVSDTYDPYLDVALEIRQAANIVRALELFVKADVLSGENAYMCAKCKKKVPASKRFTIHRTSNVLTLSLKRFANFSGGKITKDVGYPEFLNIRPYMSQNNGDPVMYGLYAVLVHSGYSCHAGHYYCYVKASNGQWYQMNDSLVHSSNVKVVLNQQAYVLFYLRIPGSKKSPEGLISRTGSSSLPGRPSVIPDHSKKNIGNGIISSPLTGKRQDSGTMKKPHTTEEIGVPISRNGSTLGLKSQNGCIPPKLPSGSPSPKLSQTPTHMPTILDDPGKKVKKPAPPQHFSPRTAQGLPGTSNSNSSRSGSQRQGSWDSRDVVLSTSPKLLATATANGHGLKGNDESAGLDRRGSSSSSPEHSASSDSTKAPQTPRSGAAHLCDSQETNCSTAGHSKTPPSGADSKTVKLKSPVLSNTTTEPASTMSPPPAKKLALSAKKASTLWRATGNDLRPPPPSPSSDLTHPMKTSHPVVASTWPVHRARAVSPAPQSSSRLQPPFSPHPTLLSSTPKPPGTSEPRSCSSISTALPQVNEDLVSLPHQLPEASEPPQSPSEKRKKTFVGEPQRLGSETRLPQHIREATAAPHGKRKRKKKKRPEDTAASALQEGQTQRQPGSPMYRREGQAQLPAVRRQEDGTQPQVNGQQVGCVTDGHHASSRKRRRKGAEGLGEEGGLHQDPLRHSCSPMGDGDPEAMEESPRKKKKKKRKQETQRAVEEDGHLKCPRSAKPQDAVVPESSSCAPSANGWCPGDRMGLSQAPPVSWNGERESDVVQELLKYSSDKAYGRKVLTWDGKMSAVSQDAIEDSRQARTETVVDDWDEEFDRGKEKKIKKFKREKRRNFNAFQKLQTRRNFWSVTHPAKAASLSYRR
Question: With B3 as the binder, how does the binding (HA-Snail1 (human) [5]) read?
Answer: The binding was “binds”.

B4: Flag-USP36^N-term(1–423) (domain or fragment, UniProt Q9P275 1-423)
chain: MPIVDKLKEALKPGRKDSADDGELGKLLASSAKKVLLQKIEFEPASKSFSYQLEALKSKYVLLNPKTEGASRHKSGDDPPARRQGSEHTYESCGDGVPAPQKVLFPTERLSLRWERVFRVGAGLHNLGNTCFLNATIQCLTYTPPLANYLLSKEHARSCHQGSFCMLCVMQNHIVQAFANSGNAIKPVSFIRDLKKIARHFRFGNQEDAHEFLRYTIDAMQKACLNGCAKLDRQTQATTLVHQIFGGYLRSRVKCSVCKSVSDTYDPYLDVALEIRQAANIVRALELFVKADVLSGENAYMCAKCKKKVPASKRFTIHRTSNVLTLSLKRFANFSGGKITKDVGYPEFLNIRPYMSQNNGDPVMYGLYAVLVHSGYSCHAGHYYCYVKASNGQWYQMNDSLVHSSNVKVVLNQQAYVLFYLRI
Question: How did the binding [6] turn out when B4 was run?
Answer: Its binding is “binds”.

— article PMC10575996
